# Source: PubChem BioAssay (NCATS)
# Where “and” joins values, the source holds several entries; their conditions need not be identical. Equal values may be shown once. This list was built around the results that the source calls inconclusive (neither active nor inactive); the mix of calls is not that of the screen. For part of these data: Where the call is inconclusive, the potency comes from a doubtful curve fit. Calls of active or inactive are those of the source. Unless noted, calls come from the whole dose curve; as a rule, active = well fitted curve in the direction sought with a large enough effect; inconclusive = small, poorly fitted or top-dose-only effect, or another doubt; inactive = no such curve, though single readings can be large; an effect the other way counts as inactive or inconclusive.
# How the values were obtained:
# [1] = NFAT Signaling Pathway (AID 444; active = well fitted curve in either direction with a large enough effect, not every such curve was filed as active; inconclusive = small, poorly fitted or top-dose-only effect, or another doubt;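 note: carbachol stimulus at about its EC50 of 1 µM final; % is set by controls: 0 for no effect and ±100 for the full control effect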); conditions: Jurkat NFAT-bla M1, carbachol, beta-lactamase ratio, 5 h
# Method in brief: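 Read-out: CCF4 FRET ratio (460 nm/530 nm) after 1 h RT dye loading, used for %activity and AC50 from titration series. Cells: Jurkat NFAT-β-lactamase/M1 line, treated with compound plus 1 uM carbachol for 5 h, 37 °C.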
# [2] = biological target: Cytochrome P450 2D6 (Homo sapiens) (UniProt P10635); assay: qHTS Assay for Inhibitors and Substrates of Cytochrome P450 2D6 (AID 891);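 note: luciferin methyl ether substrate demethylated by CYP2D6 with NADPH regeneration; top concentration of the series differs between compounds; % is set by controls: 0 for no effect and ±100 for the full control effect; nearly all actives have a fitted effect of over 60% in size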
# Chain of UniProt P10635 (P10635 whole entry, looked up): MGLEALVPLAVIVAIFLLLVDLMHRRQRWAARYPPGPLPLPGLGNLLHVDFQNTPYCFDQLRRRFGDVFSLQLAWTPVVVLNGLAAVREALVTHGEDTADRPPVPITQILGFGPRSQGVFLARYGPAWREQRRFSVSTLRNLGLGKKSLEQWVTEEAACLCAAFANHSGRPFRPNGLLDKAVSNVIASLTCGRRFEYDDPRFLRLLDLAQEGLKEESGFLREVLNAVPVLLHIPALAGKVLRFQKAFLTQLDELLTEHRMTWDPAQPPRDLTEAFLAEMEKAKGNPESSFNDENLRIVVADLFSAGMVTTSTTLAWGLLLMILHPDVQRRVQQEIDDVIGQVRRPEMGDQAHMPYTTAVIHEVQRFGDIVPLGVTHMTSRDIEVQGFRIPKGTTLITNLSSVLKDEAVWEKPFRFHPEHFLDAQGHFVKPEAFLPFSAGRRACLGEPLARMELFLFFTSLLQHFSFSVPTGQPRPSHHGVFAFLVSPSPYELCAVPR
# Method in brief: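 Luminescent read-out of luciferin formed by 5 nM human CYP2D6 demethylating 30 uM Luciferin-ME EGE (Km level) over 60 min at room temperature after NADPH regeneration addition. Data normalized to full inhibition by 1.43 uM quinidine.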
# [3] = qHTS Assay for Identification of Small Molecule Agonists for Hypoxia Response Element Signaling Pathway (AID 914; active = well fitted activation curve with a large enough effect in the signal ratio, with a control signal flat, not every such curve was filed as active; inconclusive = small, poorly fitted or top-dose-only effect, or effect the other way, or a change in a side signal; the % refers to the signal ratio; note: potency is the fitted concentration of half-maximal effect; for activation: top concentration of the series differs between compounds; % of control where 0% means no effect); conditions: ME-180 HRE-bla reporter, beta-lactamase ratio, CoCl2, 17 h; activation: active compounds read high
# Method in brief: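 qHTS titration; ME-180 HRE-bla cells; EC50 CoCl2 co-treatment, 17 h at 37 degrees Celsius; CCF4 dye, ex 405nm, em 460nm and 530nm; %Activity from ratio; AC50.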
# [4] = tested on: AS120; assay: qHTS profiling for inhibitors of Plasmodium falciparum proliferation (AID 504749); note: nearly all actives have a fitted effect of over 60% in size; note: potency is the fitted concentration of half-maximal effect;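 for activity, negative = inhibition: 0% = DMSO vehicle and full inhibition = artemisinin control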; conditions: P. falciparum in erythrocytes, SYBR Green DNA, 72 h; series mostly up to 28.7 µM
# Method in brief: (§1)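 SYBR Green fluorescence of parasite DNA, read after lysis and overnight dark incubation, measured growth over 72 h in erythrocyte culture at 0.3% parasitemia and 2.5% hematocrit. Data normalised to DMSO and 0.29 uM artemisinin, with plate-drift correction.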
# [5] = tested on: CP194; assay: as above; conditions: P. falciparum in erythrocytes, SYBR Green DNA, 72 h; series mostly up to 28.7 µM
# Method in brief: as §1
# [6] = tested on: CP215; assay: as above; conditions: P. falciparum in erythrocytes, SYBR Green DNA, 72 h; series mostly up to 28.7 µM
# Method in brief: as §1
# [7] = tested on: SC27B; assay: as above; conditions: P. falciparum in erythrocytes, SYBR Green DNA, 72 h; series mostly up to 28.7 µM
# Method in brief: as §1
# [8] = Stat Signaling Pathway (AID 446; active = well fitted curve in either direction with a large enough effect, not every such curve was filed as active; inconclusive = small, poorly fitted or top-dose-only effect, or another doubt;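 note: ME-180 cervical cancer cells given 40 pM IL-6 alongside compound; SIE-controlled beta-lactamase reporter measured as 460/530 nm FRET emission ratio; top concentration of the series differs between compounds; % is set by controls: 0 for no effect and ±100 for the full control effect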); conditions: ME-180 (cervical carcinoma) SIE beta-lactamase reporter, IL-6 stimulated, 5 h; at 38 µM (top of the series) unless noted
# Method in brief: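 Emission at 460 and 530 nm (excitation 405 nm) reports SIE-controlled beta-lactamase in ME-180 cells. Cells received compound with 40 pM IL-6 for 5 hrs at 37 C; data scaled between 300 pM IL-6 and 125 nM JAK-inhibitor controls.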
# [9] = biological target: 3',5'-cyclic-AMP phosphodiesterase 4B (Homo sapiens) (UniProt Q07343); assay: qHTS Assay for Inhibitors of PDE-IV (AID 607; active = well fitted activation curve with a large enough effect in the main read-out, with a control signal flat, not every such curve was filed as active; inconclusive = small, poorly fitted or top-dose-only effect, or effect the other way, or a change in a side signal; note: % of control where 0% means no effect); conditions: HEK293 ACTOne CNG channel cells, membrane potential fluorescence; activation (PDE inhibition): at 22.9 µM (top of the series)
# Chain of UniProt Q07343 (Q07343 whole entry, looked up): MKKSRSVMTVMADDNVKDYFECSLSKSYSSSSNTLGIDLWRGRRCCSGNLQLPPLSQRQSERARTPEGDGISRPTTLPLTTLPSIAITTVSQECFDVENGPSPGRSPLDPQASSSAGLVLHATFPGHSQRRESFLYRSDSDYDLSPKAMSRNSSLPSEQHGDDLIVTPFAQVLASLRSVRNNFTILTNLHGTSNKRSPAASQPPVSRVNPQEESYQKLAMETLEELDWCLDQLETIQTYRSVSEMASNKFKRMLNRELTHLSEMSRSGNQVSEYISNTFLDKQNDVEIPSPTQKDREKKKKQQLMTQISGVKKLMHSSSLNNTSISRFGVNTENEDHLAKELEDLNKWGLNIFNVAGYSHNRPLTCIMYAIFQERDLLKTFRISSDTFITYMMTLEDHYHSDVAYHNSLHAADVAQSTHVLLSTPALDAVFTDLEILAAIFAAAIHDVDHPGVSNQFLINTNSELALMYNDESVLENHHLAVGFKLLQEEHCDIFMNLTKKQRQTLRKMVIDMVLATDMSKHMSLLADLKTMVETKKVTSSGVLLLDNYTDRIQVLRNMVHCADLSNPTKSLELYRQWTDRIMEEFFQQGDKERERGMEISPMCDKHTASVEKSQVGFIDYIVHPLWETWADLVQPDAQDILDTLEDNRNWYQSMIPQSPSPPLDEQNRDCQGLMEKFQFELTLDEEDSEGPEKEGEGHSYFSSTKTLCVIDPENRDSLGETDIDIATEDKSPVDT
# Method in brief: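 The readout is membrane depolarisation from a cAMP-sensing CNG channel, detected with a potential dye at ex 535/em 590. Cells were HEK293-derived (endogenous PDE-IV) at 1000 cells/well, titrated up to 22.9 uM final.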
# [10] = biological target: Cytochrome P450 3A4 (Homo sapiens) (UniProt P08684); assay: qHTS Assay for Inhibitors and Substrates of Cytochrome P450 3A4 (AID 884); note: potency is the fitted concentration of half-maximal effect; nearly all actives have a fitted effect of over 50% in size
# Chain of UniProt P08684 (P08684 whole entry, looked up): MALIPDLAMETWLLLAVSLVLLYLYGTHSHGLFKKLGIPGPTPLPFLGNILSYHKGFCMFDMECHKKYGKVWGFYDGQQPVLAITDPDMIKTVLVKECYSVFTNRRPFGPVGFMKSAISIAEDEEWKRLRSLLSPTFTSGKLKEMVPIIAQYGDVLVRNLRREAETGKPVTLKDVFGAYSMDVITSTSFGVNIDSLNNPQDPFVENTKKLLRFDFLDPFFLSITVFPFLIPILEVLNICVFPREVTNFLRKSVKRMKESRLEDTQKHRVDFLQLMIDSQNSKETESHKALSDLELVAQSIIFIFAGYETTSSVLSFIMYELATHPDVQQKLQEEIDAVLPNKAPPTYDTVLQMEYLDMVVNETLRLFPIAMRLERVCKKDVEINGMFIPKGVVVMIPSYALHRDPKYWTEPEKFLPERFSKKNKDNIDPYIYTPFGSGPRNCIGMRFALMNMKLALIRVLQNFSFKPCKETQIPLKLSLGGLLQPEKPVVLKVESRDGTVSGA
# Method in brief: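 Luminescent readout of luciferin produced by CYP3A4 (20 nM) dealkylation of Luciferin-PPXE, 25 uM (its KM). NADPH-driven reaction ran 60 min at RT after 10 min compound preincubation; data scaled to 57 uM ketoconazole as 100% inhibition.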
# [11] = biological target: Ubiquitin carboxyl-terminal hydrolase 1 (Homo sapiens) (UniProt O94782); assay: Inhibitors of USP1/UAF1: Pilot qHTS (AID 504865);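 note: rhodamine fluorescence freed from ubiquitin-rhodamine substrate followed over time; potency is the fitted concentration of half-maximal effect; nearly all actives have a fitted effect of over 35% in size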
# Chain of UniProt O94782 (O94782 whole entry, looked up): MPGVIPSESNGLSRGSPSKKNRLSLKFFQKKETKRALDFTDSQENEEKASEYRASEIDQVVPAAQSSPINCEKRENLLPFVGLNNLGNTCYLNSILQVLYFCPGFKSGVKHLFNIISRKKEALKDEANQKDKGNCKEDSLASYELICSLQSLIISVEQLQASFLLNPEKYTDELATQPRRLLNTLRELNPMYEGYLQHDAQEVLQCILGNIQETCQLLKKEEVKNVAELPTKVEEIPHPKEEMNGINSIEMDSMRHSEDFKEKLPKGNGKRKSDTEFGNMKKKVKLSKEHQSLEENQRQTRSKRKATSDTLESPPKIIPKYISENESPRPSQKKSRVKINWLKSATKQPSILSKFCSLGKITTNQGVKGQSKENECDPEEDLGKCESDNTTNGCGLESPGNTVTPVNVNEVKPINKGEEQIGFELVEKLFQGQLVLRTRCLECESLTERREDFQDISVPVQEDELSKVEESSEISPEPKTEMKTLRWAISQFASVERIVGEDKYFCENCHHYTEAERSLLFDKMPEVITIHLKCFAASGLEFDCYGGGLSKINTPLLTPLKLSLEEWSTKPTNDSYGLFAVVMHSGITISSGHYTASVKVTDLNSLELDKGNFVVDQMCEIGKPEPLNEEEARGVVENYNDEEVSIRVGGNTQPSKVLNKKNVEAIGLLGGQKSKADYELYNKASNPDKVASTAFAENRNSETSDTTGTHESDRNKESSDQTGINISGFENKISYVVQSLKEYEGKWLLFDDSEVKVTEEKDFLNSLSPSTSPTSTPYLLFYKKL
# Method in brief: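 USP1/UAF1 complex at 1 nM preincubated 15 min at room temperature with compound, then Ub-Rho substrate added at 150 nM final. Fluorescence (480/540 nm) read kinetically in 50 mM HEPES pH 7.8, 0.5 mM EDTA, 1 mM TCEP, 0.1 mg/ml BSA, 0.01% Tween-20.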
# [12] = tested on: CP237; assay: qHTS profiling for inhibitors of Plasmodium falciparum proliferation (AID 504749); note: nearly all actives have a fitted effect of over 60% in size; note: potency is the fitted concentration of half-maximal effect;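 for activity, negative = inhibition: 0% = DMSO vehicle and full inhibition = artemisinin control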; conditions: P. falciparum in erythrocytes, SYBR Green DNA, 72 h; series mostly up to 28.7 µM
# Method in brief: as §1
# [13] = tested on: CP335; assay: as above; conditions: P. falciparum in erythrocytes, SYBR Green DNA, 72 h; series mostly up to 28.7 µM
# Method in brief: as §1
# [14] = tested on: GB4; assay: as above; conditions: P. falciparum in erythrocytes, SYBR Green DNA, 72 h; series mostly up to 28.7 µM
# Method in brief: as §1
# [15] = tested on: P94_40; assay: as above; conditions: P. falciparum in erythrocytes, SYBR Green DNA, 72 h; series mostly up to 28.7 µM
# Method in brief: as §1
# [16] = tested on: W2; assay: as above; conditions: P. falciparum in erythrocytes, SYBR Green DNA, 72 h; series mostly up to 28.7 µM
# Method in brief: as §1
# [17] = qHTS Assay for Identification of Small Molecule Antagonists for NFkB Signaling Pathway (AID 895; active = well fitted inhibition curve with a large enough effect in the signal ratio, with a control signal flat, not every such curve was filed as active; inconclusive = small, poorly fitted or top-dose-only effect, or effect the other way, or a change in a side signal; the % refers to the signal ratio; note: potency is the fitted concentration of half-maximal effect); conditions: NFkB beta-lactamase reporter cells, FRET ratio 460/530; activity change, negative = inhibition: at 38.3 µM (top of the series) unless noted
# Method in brief: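 Beta-lactamase reporter read-out (460 and 530 nm emission ratio, 405 nm excitation, 2 hrs substrate loading RT) after 5 hr stimulation with 10 pM TNF alpha in compound-treated NFkB-bla ME-180 cells in low-serum medium.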
# [18] = qHTS Assay for Identification of Small Molecule Antagonists for Thrombopoietin (TPO) Signaling Pathway (AID 918); conditions: TPO-dependent cell signaling reporter, antagonist mode; activity change, negative = inhibition: at 38.5 µM (top of the series); note: nearly all actives have a fitted effect of over 60% in size
# Method in brief: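 Inhibition read as reduced luciferase luminescence after 24 h at 37 C in IL-3-deprived Ba/F3 cells carrying human TPO receptor and GPIIb-promoter reporter, stimulated with 26 pM TPO (final, its EC50) alongside compound.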
# [19] = qHTS Assay for Identification of Small Molecule Agonists for NFkB Signaling Pathway (AID 928; calls by dose curve); conditions: NFkB beta-lactamase reporter cells, blue/green ratio
# Method in brief: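 Activators were sought with TNF alpha co-added at 10 pM final (its EC50) to beta-lactamase reporter cells. Cells were plated in OPTI MEM with 0.5% FBS and exposed for 5 hrs at 37 C. The FRET substrate ratio was read at 460 and 530 nm.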
# [20] = biological target: Muscarinic acetylcholine receptor M1 (Rattus norvegicus) (UniProt P08482); assay: qHTS Assay for Antagonists of Acetylcholine Muscarinic M1 Receptor: Kinetic Measurement of Intracellular Calcium Response (AID 943); note: potency is the fitted concentration of half-maximal effect; nearly all actives have a fitted effect of over 75% in size
# Chain of UniProt P08482 (P08482 whole entry, looked up): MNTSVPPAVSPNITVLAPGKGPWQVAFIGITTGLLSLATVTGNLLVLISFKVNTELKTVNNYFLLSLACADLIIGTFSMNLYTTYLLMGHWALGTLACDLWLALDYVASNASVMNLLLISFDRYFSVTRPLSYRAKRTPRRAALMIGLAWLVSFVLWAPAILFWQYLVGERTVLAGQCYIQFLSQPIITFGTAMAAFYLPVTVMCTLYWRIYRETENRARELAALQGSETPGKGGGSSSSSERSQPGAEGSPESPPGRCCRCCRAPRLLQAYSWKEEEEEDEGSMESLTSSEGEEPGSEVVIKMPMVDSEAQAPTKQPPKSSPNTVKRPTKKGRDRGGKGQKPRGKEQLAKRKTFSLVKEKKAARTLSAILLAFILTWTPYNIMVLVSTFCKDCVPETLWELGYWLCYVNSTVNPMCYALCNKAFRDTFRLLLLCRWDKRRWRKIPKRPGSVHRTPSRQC
# Method in brief: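 Antagonism measured as reduction of carbachol-evoked (EC80, 100 nM final) calcium flux in rat M1-CHO cells after 10 min compound exposure. Fluo-4 signal read kinetically; ratio of maximal to basal fluorescence.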
# [21] = biological target: Muscarinic acetylcholine receptor M1 (Rattus norvegicus) (UniProt P08482); assay: qHTS Assay for Antagonists of Acetylcholine Muscarinic M1 Receptor: Measurement of IP-One Response (AID 944); note: potency is the fitted concentration of half-maximal effect; nearly all actives have a fitted effect of over 75% in size
# [22] = biological target: Cytochrome P450 2C19 (Homo sapiens) (UniProt P33261); assay: qHTS Assay for Inhibitors and Substrates of Cytochrome P450 2C19 (AID 899)
# Chain of UniProt P33261 (P33261 whole entry, looked up): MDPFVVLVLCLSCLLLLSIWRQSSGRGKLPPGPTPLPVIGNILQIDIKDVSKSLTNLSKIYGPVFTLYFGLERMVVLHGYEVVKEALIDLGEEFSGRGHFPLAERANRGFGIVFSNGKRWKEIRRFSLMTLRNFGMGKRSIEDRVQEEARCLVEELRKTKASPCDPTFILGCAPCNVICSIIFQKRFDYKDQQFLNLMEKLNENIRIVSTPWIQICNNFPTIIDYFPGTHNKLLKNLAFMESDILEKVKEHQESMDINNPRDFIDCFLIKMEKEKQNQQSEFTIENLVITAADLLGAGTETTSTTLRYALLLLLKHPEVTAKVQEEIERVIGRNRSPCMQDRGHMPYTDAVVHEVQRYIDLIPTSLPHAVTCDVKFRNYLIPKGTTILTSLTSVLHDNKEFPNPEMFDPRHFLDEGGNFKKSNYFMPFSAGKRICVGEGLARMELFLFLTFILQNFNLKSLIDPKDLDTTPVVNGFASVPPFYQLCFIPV
# Method in brief: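 Reactions contain 5nM enzyme, 10uM Luciferin-H EGE (KM) and 50mM KPO4; compound preincubates 10 min at 37C, NADPH regeneration starts turnover for 60 min. Luminescence after detection reagent gives activity.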
# [23] = at 7.69 µM (top of the series) unless noted
# Tags give direction and shape of the fitted curve or compound fluorescence and quenching.
compound,measurement,setting,value
O=C(N1CCOCC1)C1(c2ccccc2)CCNCC1,"activity change, negative = inhibition",[1]; [23],inconclusive: -63.1% [inhibitor]
CNC[C@H](O)c1ccc(O)cc1,"activity change, negative = inhibition",[1]; at 17.2 µM (top of the series),inactive: -22.7%
same,"activity change, negative = inhibition",[1]; at 38 µM (top of the series),inactive: 10.5%
same,Potency,[2],inactive
same,Potency,[3],"inconclusive: 631 nM [inhibitor, full curve] and inconclusive: 158 nM [inhibitor, full curve]"
same,Potency,[4],inactive
same,Potency,[5],inactive
same,Potency,[6],inactive
same,Potency,[7],inactive
ClCC[N+]12CC[N+](CCCl)(CC1)C2 (tested in a mixture with another compound),"activity change, negative = inhibition",[1]; [23],inactive: -23.8%
CN1CCN(c2ccc([N+](=O)[O-])c3[nH]o[n+](=O)c23)CC1,"activity change, negative = inhibition",[1]; [23],inconclusive: -117% [inhibitor]
NCCSC(c1ccccc1)c1ccccc1,"activity change, negative = inhibition",[1]; [23],inconclusive: -44.3% [inhibitor]
same,"activity, negative = inhibition",[8],inconclusive: -3.8% [inhibitor] [at 7.69 µM]
same,Potency,[9],inactive
same,Potency,[10],"inconclusive: 3.16 µM [inhibitor, partial curve]"
CCN[C@]1(c2cccs2)CCCCC1=O,"activity change, negative = inhibition",[1]; [23],inactive: -19.9% [at 17.2 µM]
same,Potency,[11],"inconclusive: 39.8 µM [inhibitor, partial curve, poor fit]"
same,Potency,[12],"inconclusive: 3.55 µM [inhibitor, single point]"
same,Potency,[13],inactive
same,Potency,[14],"inconclusive: 3.22 µM [inhibitor, partial curve, poor fit]"
same,Potency,[15],"inconclusive: 10 µM [inhibitor, single point]"
same,Potency,[16],"inconclusive: 4.55 µM [inhibitor, partial curve]"
C=CCN1C[C@@H](C)N([C@H](c2ccc(C(=O)N(CC)CC)cc2)c2cccc(OC)c2)C[C@H]1C,"activity change, negative = inhibition",[1]; [23],inconclusive: -62.4% [inhibitor] [at 38 µM]
same,"activity, negative = inhibition",[8],inconclusive: 11.6% [inhibitor]
same,Potency,[17],active: 5.01 µM
same,"activity change, negative = inhibition",[18],inconclusive: -14.4% [phenotype inactive]
same,Potency,[19],"inconclusive: 5.01 µM [inhibitor, partial curve]"
same,Potency,[20],active: 14.1 µM
same,Potency,[21],"inconclusive: 15.8 µM [inhibitor, partial curve, poor fit]"
COc1cc2c(cc1O)[C@H]1Cc3ccc(OC)c(O)c3CN1CC2,"activity change, negative = inhibition",[1]; [23],inconclusive: -51.5% [inhibitor] [at 17.2 µM]
same,Potency,[22],"inconclusive: 7.94 µM [inhibitor, single point]"
same,activation,[3],inconclusive: -71.9%
same,Potency,[11],active: 10 µM
Nc1c(C(=O)NCc2ccco2)c2nc3ccccc3nc2n1CCN1CCCCC1,"activity change, negative = inhibition",[1]; [23],inconclusive: 58.3% [activator] [at 17.2 µM]
same,"activity, negative = inhibition",[8],inconclusive: 91.2% [activator] [at 17.2 µM]
same,Potency,[3],active: 7.94 µM
